Inconclusive results are not listed. Calls follow the shape of the dose curve; as a rule, active = well fitted activation curve with a large enough effect in the repeat runs; inconclusive = weak or mixed curves; inactive = flat fitted curve, though single readings scatter. Some compounds were tested as several samples or in several runs, with calls that do not always agree. A number of entries come with more than one value. This is not the full list of results. There may be further records. Values given together repeat one measurement (runs, samples, wells, individuals or studies). What stands in brackets tells the records apart. A, B and so on number the origins entry by entry.

The nature of this experiment: A CellTox Green Cytotoxicity Assay to monitor cytotoxicity in HEK293 cells - 24 hour (AID 1224875). Also: nearly all actives have a fitted effect of over 45% in size. The procedure, abridged:
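Cytotoxicity was tracked continuously in HEK293 cells by a DNA-binding dye excluded from viable cells. Compounds were transferred in DMSO 5 h after seeding; fluorescence was recorded at intervals up to 40 h.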
Potency is read from the fitted curve at half-maximal effect.

Turning to `Cc1cc(O)c(C(C)C)cc1Cl`, the Potency result was “active: 34.7 µM [sample A] and inactive [sample B]”.

Values taken from PubChem BioAssay (Tox21).
